The structures appear in SMILES notation. About 2,200 (0.71%) of roughly 310,000 compounds showed an effect of 50% or more. The effect is printed as a negative number. Some of the results follow.

The target of this experiment is human ether-à-go-go-related gene (hERG) potassium channel (human, UniProt Q12809). As to the kind of experiment: primary screen, population patch clamp on CHO cells stably expressing hERG.
Chain of human ether-à-go-go-related gene (hERG) potassium channel (Q12809 whole entry, looked up): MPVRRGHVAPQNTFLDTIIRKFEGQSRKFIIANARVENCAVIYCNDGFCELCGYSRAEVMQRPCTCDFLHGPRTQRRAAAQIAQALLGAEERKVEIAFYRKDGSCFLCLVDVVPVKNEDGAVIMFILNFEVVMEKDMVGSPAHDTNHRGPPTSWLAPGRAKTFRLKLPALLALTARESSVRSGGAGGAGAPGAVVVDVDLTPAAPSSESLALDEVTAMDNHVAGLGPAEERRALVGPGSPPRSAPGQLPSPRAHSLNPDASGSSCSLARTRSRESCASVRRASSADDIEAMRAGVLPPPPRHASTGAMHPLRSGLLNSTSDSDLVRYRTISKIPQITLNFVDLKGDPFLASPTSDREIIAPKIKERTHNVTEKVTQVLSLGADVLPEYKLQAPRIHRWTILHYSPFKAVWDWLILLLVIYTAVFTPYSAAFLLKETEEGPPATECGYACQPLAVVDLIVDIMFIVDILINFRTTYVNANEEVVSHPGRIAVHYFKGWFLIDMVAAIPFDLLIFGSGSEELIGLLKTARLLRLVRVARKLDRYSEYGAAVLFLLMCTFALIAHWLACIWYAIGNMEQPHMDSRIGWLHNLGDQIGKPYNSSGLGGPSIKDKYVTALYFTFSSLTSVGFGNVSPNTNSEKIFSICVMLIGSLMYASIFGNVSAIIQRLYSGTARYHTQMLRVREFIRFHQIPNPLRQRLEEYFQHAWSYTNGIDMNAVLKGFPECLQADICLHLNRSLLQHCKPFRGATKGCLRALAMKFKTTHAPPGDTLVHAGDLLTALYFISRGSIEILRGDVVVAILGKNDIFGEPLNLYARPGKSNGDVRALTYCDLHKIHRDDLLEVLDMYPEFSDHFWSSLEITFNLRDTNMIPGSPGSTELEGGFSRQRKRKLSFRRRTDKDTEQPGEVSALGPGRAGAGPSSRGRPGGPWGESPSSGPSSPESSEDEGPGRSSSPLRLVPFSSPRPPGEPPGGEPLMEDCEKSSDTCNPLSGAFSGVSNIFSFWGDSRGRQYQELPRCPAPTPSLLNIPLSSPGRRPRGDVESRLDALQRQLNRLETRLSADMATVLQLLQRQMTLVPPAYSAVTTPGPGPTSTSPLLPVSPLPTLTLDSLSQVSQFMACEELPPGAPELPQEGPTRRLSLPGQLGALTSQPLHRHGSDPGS
Take `COc1ccccc1N1CCN(C2CC(=O)N(c3ccccc3)C2=O)CC1` (centres unmarked): the “hERG current change (%, negative = inhibition) at 1uM” value is 17.1%.
As for `Cc1cc(Nc2ccccc2N2CCOCC2)n2ncnc2n1`, the figure is -4.73%; as for `CCOC(=O)C1(Cc2cccc(OC)c2)CCCN(C(=O)CCN2CCCO2)C1` (centres unmarked), 4.85%.
Take `Cl.O=C(CCN1CCCCCC1)c1ccccc1`: the “hERG current change (%, negative = inhibition) at 1uM” value is 0.428%.
`Cc1cc(Br)ccc1SCC(=O)OCC(=O)NC(C)c1ccccc1` (centres unmarked): the “hERG current change (%, negative = inhibition) at 1uM” value is -4.48%.
The value for `O=P1(O)C=C(c2ccccc2)NC(c2ccccc2)=C1` was 3.18%; that for `COc1ccc(COCC(O)CN2CCC(C(N)=O)CC2)cc1` (centres unmarked) was 11.7%; that for `COCCNC(=O)c1n[nH]c2ccccc12` was 7.52%.
The value for `O=c1c([N+](=O)[O-])c[nH]c2ccccc12` was 12.5%.
Take `Cc1c(NC(=S)NC(=O)c2ccco2)cccc1-c1nc2ncccc2o1`: the “hERG current change (%, negative = inhibition) at 1uM” value was 8.18%.
As for `CC(=O)c1cc(C(=O)NC2CCCc3c2cnn3-c2cc(C)cc(C)c2)[nH]n1` (centres unmarked), the figure is -4.3%; as for `Cc1ccc(/C(N)=N/OC(=O)c2ccc(F)cc2)cc1`, 13.8%.
As for `Cc1ccccc1NC(=O)NCCc1ccc(Cl)cc1`, the figure is 8.42%; as for `COc1ccccc1N1CCN(C(=O)C(OC(C)=O)c2ccccc2)CC1` (centres unmarked), 11.8%; as for `COc1ccc(-c2nc(NC(=O)c3ccc(OCC(=O)N4CCOCC4)c(OC)c3)sc2C)cc1`, 8.7%.
The value for `O=[N+]([O-])c1ccc(N=Nc2ccc(O)cc2O)cc1` was 14.1%; that for `CCCCN(C(=O)c1cccc(-n2cccc2)c1)c1c(N)n(Cc2ccccc2)c(=O)[nH]c1=O` was 0.161%; that for `COc1ccc(CNC(=O)c2ccc3c(c2)N(C)CCS3)cc1` was 3.7%.
Consider `Cc1ccc(-n2nc3c(=O)n(C(C)C(=O)NCc4ccco4)nc(C)c3c2C)cc1` (centres unmarked), for which the “hERG current change (%, negative = inhibition) at 1uM” value is on record as 12.8%.
Take `O=C(CN1CCN(c2ccccc2O)CC1)Nc1cc(S(=O)(=O)N2CCCC2)ccc1Cl`: the “hERG current change (%, negative = inhibition) at 1uM” value is listed as -7.45%.
As for `CNS(=O)(=O)c1cc(C(=O)O)ccc1OC`, the figure is -5.92%; as for `Cc1ccc(N2C(=O)N3[C@H](c4ccc(Cl)cc4)[C@@H]4C(=O)N(C5CCCCC5)C(=O)[C@@H]4[C@]3(Cc3ccccc3)C2=O)cc1`, 8.52%.
As for `CCCCC(=O)NC(c1ccccc1Cl)c1ccc2cccnc2c1O` (centres unmarked), the figure is 14.9%; as for `Cc1nn(CC(=O)NCCCN2CCOCC2)c(C)c1[N+](=O)[O-]`, -18.9%.
As for `CCn1c(=O)c2cc(C(=O)N(C)CC(OC)OC)sc2c2ccccc21`, the figure is 13%.
Consider `O=C(c1cnn(C(=O)CN2CCCC2=O)c1)c1ccccc1O`, for which the “hERG current change (%, negative = inhibition) at 1uM” value is 6.39%.
The value for `O=C(c1cc(COc2ccc(F)cc2Cl)on1)N1CCN(C2CCCCC2)C(=O)C1` was -18.8%.
The value for `O=c1[nH]c(=O)n(Cc2ccco2)c(O)c1/C=N/N1CCCCCC1` was -4.12%; that for `COc1ccc(CNS(=O)(=O)c2ccc(-c3cnc(C4CC4)o3)cc2)cc1` was 7.89%.
As for `COc1ccc(NCc2nnc(SCC(=O)Nc3ccc(OC)cc3OC)o2)cc1`, the figure is -2.7%; as for `Cn1cc(S(=O)(=O)Nc2ccc(Cl)cc2Cl)c(=O)n(C)c1=O`, 11.6%.
Consider `CC1Cc2ccccc2N1C(=O)c1cnc2n(c1=O)CCS2` (centres unmarked), for which the “hERG current change (%, negative = inhibition) at 1uM” value was found to be 14.7%.
The value for `Cc1cc(C(=O)OCC(=O)NC2CCS(=O)(=O)C2)c2ccccc2n1` (centres unmarked) was 3.65%.
`C#CCOCCOCCOCCNc1nc(N2CCN(C(=O)CCCCCCCCCCNC(=O)[C@@H](CCSC)n3cc(CCO)nn3)CC2)nc(N2CCN(C(=O)CCCCCCCCCCNC(=O)[C@H]([C@@H](C)CC)n3cc(CCCCCN)nn3)CC2)n1`: the “hERG current change (%, negative = inhibition) at 1uM” value amounted to 14.6%.
As for `C[n+]1cc(C(=O)N2CCCCC2)ccc1/C=C/c1c[nH]c2ccccc12.[I-]`, the “hERG current change (%, negative = inhibition) at 1uM” value stood at 12.2%.
For the compound `Cc1ccc(-c2cc(C(=O)N3CCN(c4ccccc4O)CC3)c3ccccc3n2)o1`, the “hERG current change (%, negative = inhibition) at 1uM” value was -20.5%.
The value for `CCOC(=O)N1CCC(N2CC34C=CC(O3)C(C(=O)Nc3ccc(C)cc3)C4C2=O)CC1` (centres unmarked) was 10.5%.
As for `COc1ccccc1-n1cnc2cc(NCc3ccccn3)ccc21`, the figure is -6.77%; as for `CCOC(=O)N1C2C=C(C)[C@@H]2[C@@H]2CC(=O)N21` (some centres unmarked), 10.9%.
In the case of `CC1CCN(C(=O)C2CCN(c3nnc(-n4cccc4)s3)CC2)CC1`, the “hERG current change (%, negative = inhibition) at 1uM” value is 12.4%.
As for `Cc1cccc(OCC(=O)NNC(=O)c2cc3ccccc3oc2=O)c1`, the figure is 7.04%.
Turning to `COc1ccccc1Oc1ccccc1[N+](=O)[O-]`, the “hERG current change (%, negative = inhibition) at 1uM” value was 10.7%.
As for `O=C(NCc1ccccn1)C1CCN(Cc2cccc(OCc3ccccc3)c2)CC1.O=C(O)C(=O)O`, the figure is -1.41%.
As for `C=CCn1c2ccccc2c(=O)c2cc(C#Cc3cc(OC)cc(OC)c3)ccc21`, the figure is 10.6%.

The values are drawn from article PMC4336329 (PLoS ONE, 2015).
